Experimental data from PubChem BioAssay AID488969 (Vanderbilt High Throughput Screening Facility, 2010).
Over roughly 110,000 compounds, “z-score” has its median near -0.1; the highest 2% begin near 2. The list shows a part of the results. Calls of active or inactive are those of the source.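 Rule for the calls: active = z-score in the third read window above 3 or below -3; inactive = the rest.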

These compounds were tested against Metabotropic glutamate receptor 8 (Rattus norvegicus) (UniProt P70579) (assay: mGluR8 Gi/Go-coupled signaling modulation – cell-based, rat, thallium flux, HTS, primary screen (AID 488969)). Conditions: HEK293 rat mGluR8, GIRK (G protein-gated inwardly rectifying potassium channel) thallium flux, FluoZin2; at 10 µM; stronger effect = higher value; submaximal glutamate (EC20) added with thallium.
Chain of UniProt P70579 (P70579 whole entry, looked up): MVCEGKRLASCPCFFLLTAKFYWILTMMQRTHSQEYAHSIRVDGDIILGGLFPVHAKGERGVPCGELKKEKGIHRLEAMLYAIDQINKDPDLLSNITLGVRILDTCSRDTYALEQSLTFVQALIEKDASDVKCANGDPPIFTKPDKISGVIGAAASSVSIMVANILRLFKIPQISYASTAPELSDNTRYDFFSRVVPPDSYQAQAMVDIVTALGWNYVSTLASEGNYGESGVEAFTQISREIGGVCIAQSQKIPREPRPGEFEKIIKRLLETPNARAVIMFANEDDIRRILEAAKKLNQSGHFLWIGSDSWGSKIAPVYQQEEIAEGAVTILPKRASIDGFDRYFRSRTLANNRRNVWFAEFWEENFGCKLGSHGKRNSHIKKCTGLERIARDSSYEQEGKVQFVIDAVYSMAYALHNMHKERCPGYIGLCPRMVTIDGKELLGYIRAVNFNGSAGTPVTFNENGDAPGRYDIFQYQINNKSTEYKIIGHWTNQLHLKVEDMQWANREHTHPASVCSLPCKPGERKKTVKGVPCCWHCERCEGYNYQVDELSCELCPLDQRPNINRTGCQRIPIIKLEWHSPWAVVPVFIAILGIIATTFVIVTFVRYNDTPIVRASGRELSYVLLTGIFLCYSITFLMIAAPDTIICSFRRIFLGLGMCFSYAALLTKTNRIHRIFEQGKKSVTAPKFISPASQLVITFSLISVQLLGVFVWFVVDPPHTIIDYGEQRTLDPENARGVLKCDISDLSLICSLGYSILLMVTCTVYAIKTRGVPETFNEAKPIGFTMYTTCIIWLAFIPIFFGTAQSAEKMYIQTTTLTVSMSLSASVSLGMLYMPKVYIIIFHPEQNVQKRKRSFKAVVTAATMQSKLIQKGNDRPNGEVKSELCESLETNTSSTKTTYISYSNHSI

SMILES | z-score
CN(C)S(=O)(=O)c1ccc(C(=O)Nc2ccc(Cl)cc2)cc1 | 0.118
CSc1nnc2c(n1)OC=Nc1ccccc1-2 | -0.139
CCc1ccc(NC(=O)CCn2ccnc2C)cc1 | 0.306
CCCOC(=O)c1[nH]c2c(c1C)C(=O)CC(c1cccs1)C2 (stereo not drawn) | -0.0689
CCn1c(SCC(=O)N2CCCc3ccccc32)nnc1-c1cccs1 | 0.11
CN(c1ccc(C(=O)Nc2ccccc2C(=O)N2CCCC2)cc1)S(C)(=O)=O | -0.377
CCCC(CCC(=O)Nc1ccc(C(=O)OC)cc1)C(=O)O (stereo not drawn) | 0.661
COc1ccc(N2CCN(C(=O)CSc3nnc(C)c(=O)[nH]3)CC2)cc1 | -0.393
Cc1ccc(SCc2cc(=O)[nH]c(N3CCN(Cc4ccc5c(c4)OCO5)CC3)n2)cc1 | -0.465
C/C(=N\NC(=O)c1c(Cl)cnn1C)c1cccc(NC(=O)COc2ccccc2)c1 | -0.0839
COc1ccc2ccccc2c1/C=N/NC(=O)c1cccc(Br)c1 | -1.24
Cc1ccc(-n2c(C)cc(C=C3C(=O)CC(C)(C)CC3=O)c2C)cc1 | -0.0153
Cc1cc(S(=O)(=O)Nc2ccc(C(=O)N3CCN(C(=O)c4ccco4)CC3)cc2)ccc1F | -0.305
CCCN(CC(=O)Nc1cc(Cl)ccc1Cl)C(=O)/C=C/c1ccco1 | -0.346
COc1ccc2c(c1)CC/C(=C\Nc1ccc3c(c1)OCO3)C2=O | -0.324
CN1CCN(C(CNS(=O)(=O)c2ccc(Cl)cc2)c2cccnc2)CC1 (stereo not drawn) | -0.426
C=CCn1c(Cc2ccc(OC)cc2)nnc1SCC(=O)NCCc1ccccc1 | -0.118
CCOc1c(Br)cc(/C=N\NC(=O)c2ccccc2)cc1OC | -0.466
CNC(=O)c1ccc(Nc2nnc(C)c3ccccc23)cc1 | -0.0102
C=CCn1c(SCC(=O)c2c(N)n(CCC)c(=O)n(C)c2=O)nc2sc(CC)cc2c1=O | -0.862
CC(NC(=O)Nc1ccc(O)cc1)(C(F)(F)F)C(F)(F)F | 0.187
OC(CNCCc1ccc(C(F)(F)F)cc1)COc1cccc2ccccc12 (stereo not drawn) | -2.23
CC(NC(=O)CCC1COc2ccccc2O1)c1ccccc1 (stereo not drawn) | -0.277
Cc1ccc(Cn2c(SCC(=O)N/N=C/c3ccc(C)o3)nc3ccccc32)cc1 | -0.169
O=C(O)c1ccccc1N/N=C\c1ccnc2ccccc12 | 0.716

SMILES | z-score
CC(C)(C)c1ccc(-c2n[nH]c(=S)n2C2CCCC2)cc1 | active: 4.4
COC(=O)c1ccc(C(C(=O)NC2CCCCC2)N(C(=O)Cc2cccs2)C2CC2)cc1 (stereo not drawn) | -0.377
Cc1ccc(-c2nc(N)sc2CC(=O)OCC(=O)NCCC(C)C)cc1 | -1.61
CCCC(=O)Nc1nnc(SCC)s1 | 0.0928
CCOC(=O)c1c(-c2ccccc2)oc2ccc(O)c(CN3CCOCC3)c12 | -0.29
Cc1ccc(C)c(S(=O)(=O)N2CCN(C(=O)c3cnccn3)CC2)c1 | 0.456
COc1oc(-c2ccc(Cl)cc2)nc1C(F)(F)F | -0.129
CCOC(=O)c1nc2ccccc2nc1C | -0.122
N#CC1=C(N)C(C#N)(C#N)C(c2cccnc2)C2CN(C(=O)OCc3ccccc3)CC=C12 (stereo not drawn) | -0.373
Cc1cccc2sc(NC(=O)CCNS(=O)(=O)c3cccs3)nc12 | 0.312
O=C(CCNC(=O)OCc1ccccc1)NC1CCCCCC1 | -0.182
CCOc1ccc(/C=C2/SC(=S)N(n3c(C)ccc3C)C2=O)cc1 | 0.164
CC(Sc1nc2cc([N+](=O)[O-])ccc2n1-c1cccc(C(F)(F)F)c1)C(=O)NC(N)=O (stereo not drawn) | 0.945
CSc1snc(SCC(N)=O)c1C#N | -0.211
Cc1cc(C)n2nc(C(=O)NCc3ccco3)nc2n1 | 0.654
O=C(Nc1ccc(Cl)cc1)Nc1nc(-c2sccc2Br)cs1 | -0.223
CC1CN(Cc2cc(=O)[nH]c(C3CC3)n2)CC(C)O1 (stereo not drawn) | -0.155
CC(OC(=O)c1cccs1)C(=O)NCc1ccco1 (stereo not drawn) | -0.226
COc1ccc(NC(=S)NNc2ccc([N+](=O)[O-])cc2S(=O)(=O)Nc2ccc(C)cc2C)cc1 | -0.391
O=C(Nc1cccc(O)c1)N1CCOCC1 | 0.81
Cc1cc(C)n(-c2nc(Nc3ccccc3C)nc(-n3nc(C)cc3C)n2)n1 | 0.188
Cc1ccc(-c2csc(/C(C#N)=C/Nc3ccc4c(c3)OCCO4)n2)cc1 | -0.113
CCCCC(=O)Nc1cc(C(=O)NCCc2ccccc2)ccc1Cl | 0.145
CO/N=C(\c1nonc1N)N1CCN(c2ccc(Cl)cc2[N+](=O)[O-])CC1 | -0.123
O=C1CC(N2CCN(Cc3ccc4c(c3)OCO4)CC2)C(=O)N1c1cccc(Cl)c1 (stereo not drawn) | -0.0663

SMILES | z-score
CCC(=O)Nc1cc(C)c(NC(=O)CCc2ccccc2)cn1 | -0.854
Cn1ncc(N=Cc2ccccc2O)c1C(=O)N1CCOCC1 | 0.16
NC(=O)c1ccsc1NC(=O)c1ccco1 | -0.0583
Cc1nnsc1S(=O)(=O)Cc1ccccc1Cl | 0.423
CCN1C(=O)S/C(=C\c2ccc(N3CCOCC3)cc2C)C1=O | -0.101
O=C(c1ccc(F)cc1)N1C2CCC1CC(O)(c1ccccc1F)C2 (stereo not drawn) | -0.291
Cc1cccc(C)c1NC(=O)COC(=O)C1Cc2ccccc2CN1C(=O)c1ccccc1 (stereo not drawn) | -0.378
O=C(CNCC1CCCO1)Nc1ccccc1N1CCCCCC1 (stereo not drawn) | -0.099
COc1ccc(S(=O)(=O)CCC(=O)O)cc1 | 0.0651
Cc1ccc(C)c2c1[nH]c1ccc([N+](=O)[O-])cc12 | -0.0383
COc1ccc(CCNC(=S)Nc2cccc(C)c2)cc1 | 0.881
CC(C)CNC(=S)NC(=O)c1ccccc1Cl | active: 8.99
CSc1ccccc1NC(=O)Nc1ccc(F)c(Cl)c1 | -0.197
Cc1ccc(-c2ccc(SCC(=O)Nc3nonc3C)nn2)cc1 | -2.16
CCn1c(SC(=O)NC2CCCCC2)nnc1-c1cccs1 | 0.837
Cc1ccc(C)c(NC(=S)Nc2ccc(S(=O)(=O)Nc3ncccn3)cc2)c1 | 0.1
CCn1c(-c2cc(-c3cccc(OC)c3)nc3ccccc23)n[nH]c1=S | 1.92
CC12CCC(C(=O)Nc3ccccc3Br)(C/C1=N\O)C2(C)C (stereo not drawn) | -0.427
COc1ccc(CC(=S)N2CCOCC2)cc1 | -0.09
O=C1CC(c2c[nH]c3ccccc23)C(=O)N1 (stereo not drawn) | 0.297
CCCCCC(=O)N/N=C/c1ccco1 | -0.231
O=C(CNS(=O)(=O)c1ccccc1)N/N=C\c1ccc(Cl)cc1 | -0.283
COc1ccc(N2C(=O)C(Cl)=C(N3CCN(Cc4ccccc4)CC3)C2=O)cc1 | 0.342
